From article PMC4336329 (PLoS ONE, 2015)
About 14,000 (4.5%) of roughly 310,000 compounds showed an effect of 50% or more. The effect is printed as a negative number. The list shows a part of the results.

Biological target: human ether-à-go-go-related gene (hERG) potassium channel (human, UniProt Q12809)
Assay: primary screen, population patch clamp on CHO cells stably expressing hERG
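Also: peak tail current of the secondary pulse compared with the same well before compound.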

Sequence of human ether-à-go-go-related gene (hERG) potassium channel (Q12809 whole entry, looked up): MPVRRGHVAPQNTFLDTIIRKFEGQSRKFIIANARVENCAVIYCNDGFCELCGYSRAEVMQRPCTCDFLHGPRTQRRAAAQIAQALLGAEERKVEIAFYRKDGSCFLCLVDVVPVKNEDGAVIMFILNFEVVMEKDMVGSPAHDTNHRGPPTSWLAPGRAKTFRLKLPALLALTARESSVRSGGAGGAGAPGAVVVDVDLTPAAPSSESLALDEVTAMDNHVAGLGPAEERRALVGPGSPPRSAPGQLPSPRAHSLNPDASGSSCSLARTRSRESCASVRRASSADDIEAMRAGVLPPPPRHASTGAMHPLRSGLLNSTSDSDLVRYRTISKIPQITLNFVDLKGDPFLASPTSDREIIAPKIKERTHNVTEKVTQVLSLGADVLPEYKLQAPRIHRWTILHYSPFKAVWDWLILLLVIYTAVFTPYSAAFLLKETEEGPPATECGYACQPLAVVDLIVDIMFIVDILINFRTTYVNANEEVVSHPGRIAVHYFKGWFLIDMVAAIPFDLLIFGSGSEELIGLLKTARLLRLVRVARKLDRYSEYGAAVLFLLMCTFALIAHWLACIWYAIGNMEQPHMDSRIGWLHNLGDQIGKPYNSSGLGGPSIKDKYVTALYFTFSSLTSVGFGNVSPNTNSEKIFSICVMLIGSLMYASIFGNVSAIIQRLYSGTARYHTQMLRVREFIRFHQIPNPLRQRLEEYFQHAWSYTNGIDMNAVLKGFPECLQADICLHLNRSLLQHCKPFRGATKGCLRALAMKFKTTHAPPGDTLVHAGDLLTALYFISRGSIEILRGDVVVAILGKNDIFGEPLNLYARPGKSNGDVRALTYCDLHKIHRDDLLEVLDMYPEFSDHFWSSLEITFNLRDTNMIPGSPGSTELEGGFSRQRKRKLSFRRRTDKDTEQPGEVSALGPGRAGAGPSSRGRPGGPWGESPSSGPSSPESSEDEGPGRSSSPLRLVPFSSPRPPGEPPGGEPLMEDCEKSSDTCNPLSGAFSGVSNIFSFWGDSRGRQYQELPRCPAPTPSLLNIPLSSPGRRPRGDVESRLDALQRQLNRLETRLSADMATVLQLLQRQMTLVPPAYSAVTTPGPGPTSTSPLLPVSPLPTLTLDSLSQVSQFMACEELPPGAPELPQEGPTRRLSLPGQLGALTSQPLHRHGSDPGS

Compared with `CC[n+]1c(C)sc2cc(C)ccc21.[I-]`, `Cc1ccc(NC2=C(Cl)C(=O)OC2OC(C)C)c(C)c1` (stereo not shown) is lower in “hERG current change (%, negative = inhibition) at 10uM” value: 15% for the first, -28.9% for the second.

First: CCc1ccc(C2CC(c3ccccc3Cl)Nc3nc(N)nn32)cc1 (stereo not shown)
Second: CN(Cc1ccccn1)C(=O)C1CCC(=O)N(CCc2ccc(Cl)cc2)C1 (stereo not shown)
The “hERG current change (%, negative = inhibition) at 10uM” value of the first is higher: -11.4% for the first, -53.1% for the second.

Going from `O=C(c1ccc(S(=O)(=O)N2CCCC2)cc1)N1CCN(c2cccc(Cl)c2)CC1` to `O=C(O)C1(c2ccccc2)CCN(S(=O)(=O)c2ccc(Cl)cc2)CC1`, the “hERG current change (%, negative = inhibition) at 10uM” value rises from -1.77% to 23.2%.

First: COc1ccc(-c2cc(=O)oc3cc(OCC(=O)Nc4ccc(CCO)cc4)ccc23)cc1
Second: COc1ccc(C2/C=C\CN(C(=O)C3CCCCC3)CC(=O)N2Cc2ccc(F)cc2)cc1 (stereo not shown)
The “hERG current change (%, negative = inhibition) at 10uM” value of the first is higher: 15.3% for the first, -10.1% for the second.

Compared with `FC(F)(F)c1ccc(CNCCc2c[nH]c3ccccc23)cc1.O=C(O)C(=O)O`, `CNC(=O)CSc1nc2ccccc2c(=O)n1CCc1ccccc1` is higher in “hERG current change (%, negative = inhibition) at 10uM” value: -25.5% for the first, 19.9% for the second.

First: CCC(C)NC(=O)c1cc(Cl)ccc1OC (stereo not shown)
Second: COc1cc(Cl)ccc1OCc1cc(C(=O)NCCCN2CCCC2=O)no1
The “hERG current change (%, negative = inhibition) at 10uM” value of the first is higher: -7.43% for the first, -18.9% for the second.

Going from `Cc1cc(C)cc(OCC(=O)Nc2cccc(S(=O)(=O)NC3=NCCC3)c2)c1` to `Cc1ccc(S(=O)(=O)NCc2ccccc2)cc1C(=O)NCC(C)(C)N1CCOCC1`, the “hERG current change (%, negative = inhibition) at 10uM” value falls from -12.1% to -19.6%.

First: CCCCOC(=O)c1ccccc1C(=O)OCc1ccccc1
Second: O=C(O)CCn1c(SCCc2ccccc2)nc2ccccc21
The “hERG current change (%, negative = inhibition) at 10uM” value of the first is lower: 10.3% for the first, 15.5% for the second.

Compared with `CCCCSc1nc(C)c(C(C)=O)cc1C#N`, `CCOC(=O)CCCCC(=O)c1[nH]c(=O)[nH]c1CSc1nc(-c2ccccc2)c(C#N)c(=O)[nH]1` is higher in “hERG current change (%, negative = inhibition) at 10uM” value: 14.1% for the first, 17.1% for the second.

Compared with `Cc1cc(OCc2nc(-c3cccnc3)no2)c(C)cc1Br`, `COC(=O)CNc1c(-c2ccccn2)nc2ccc(Br)cn12` is lower in “hERG current change (%, negative = inhibition) at 10uM” value: 5.03% for the first, -7.34% for the second.

Going from `O=C(Nn1c(SCc2ccc(F)cc2)nc2ccsc2c1=O)c1ccccc1` to `CN(C)CCn1c(SCc2ccccc2C#N)nc2c(sc3ccccc32)c1=O.Cl`, the “hERG current change (%, negative = inhibition) at 10uM” value falls from 3.69% to -28%.

Going from `CCOC(=O)c1nc2ccccc2nc1C` to `CC(=O)Nc1nc2ccccc2[nH]1`, the “hERG current change (%, negative = inhibition) at 10uM” value rises from -9.85% to -0.326%.

Compared with `Cn1c(=O)n(C)c2cc(/C=C(/C#N)C(=O)NCc3ccco3)ccc21`, `Cc1cc(C(=O)CCl)c(C)n1-c1c(C)n(C)n(-c2ccccc2)c1=O` is higher in “hERG current change (%, negative = inhibition) at 10uM” value: -12% for the first, 8.16% for the second.

First: Cc1oc2c(CN3CCCC3)c(O)ccc2c(=O)c1Oc1ccccc1Br
Second: O=C(CCCn1c(=S)[nH]c2ccccc2c1=O)N1CCCCC1
The “hERG current change (%, negative = inhibition) at 10uM” value of the first is higher: 8.7% for the first, -10.4% for the second.

First: Cc1cc(C)n2c(Br)c(CN3CCCC(C)C3)nc2n1 (stereo not shown)
Second: Cc1ccc(N2C(=O)C3CCCN3C2=S)cc1 (stereo not shown)
The “hERG current change (%, negative = inhibition) at 10uM” value of the first is higher: 28.6% for the first, 15.3% for the second.

Going from `O=[N+]([O-])c1ccc2nc(NS(=O)(=O)c3ccccc3[N+](=O)[O-])sc2c1` to `O=c1oc(-c2cccs2)nc2ccc(Br)cc12`, the “hERG current change (%, negative = inhibition) at 10uM” value falls from 15.7% to 8.92%.

Compared with `CC1(C)CC(NC(=O)C(Cl)(Cl)Cl)CC(C)(C)N1`, `CC1CN(C(=O)Nc2cccc(C(F)(F)F)c2)CC(C)O1` (stereo not shown) is higher in “hERG current change (%, negative = inhibition) at 10uM” value: -3.76% for the first, 8.82% for the second.

First: CC1CCN(C(=O)CSc2nnc(Cc3cccn3C)n2-c2ccc(F)cc2)CC1
Second: O=C1CCCN1C(=O)CSc1nnnn1-c1ccccc1
The “hERG current change (%, negative = inhibition) at 10uM” value of the first is lower: -9.06% for the first, -4.82% for the second.

Compared with `Clc1cccc(CN2CCSCC2)c1`, `O=C(O)C1CCCCC1C(=O)NCCc1cccc(Cl)c1` (stereo not shown) is lower in “hERG current change (%, negative = inhibition) at 10uM” value: 13.7% for the first, -0.556% for the second.

Going from `CCOC(=O)N/N=C(\C)c1ccc(-n2cnnn2)cc1` to `C/C(=N\NC(=O)COc1ccc(C#N)cc1)c1ccc(N2CCOCC2)cc1`, the “hERG current change (%, negative = inhibition) at 10uM” value falls from 17.2% to -4.36%.

Compared with `C=CCC1(CC=C)CCCN1C(=O)C1CCC(=O)N(CCc2ccc(Cl)cc2)C1` (stereo not shown), `COc1ccccc1NC(=S)N1CCN(C(=O)C2CCCO2)CC1` (stereo not shown) is higher in “hERG current change (%, negative = inhibition) at 10uM” value: -60% for the first, 11.9% for the second.

Compared with `COc1ccc(N(C(=O)CNC(=O)c2cccs2)C(C(=O)NCC2CCCO2)c2ccccc2)cc1OC` (stereo not shown), `COc1ccc(OC)c(NC(=O)c2ccc3c(c2)C(=O)N(CC2CCCO2)C3=O)c1` (stereo not shown) is lower in “hERG current change (%, negative = inhibition) at 10uM” value: 4.94% for the first, 1.37% for the second.

Compared with `CCOC(=O)NC(NS(=O)(=O)c1ccccc1)(C(=O)OCC)C(F)(F)F` (stereo not shown), `CCCCC(SCC(=O)Nc1ccccc1)C(=O)O` (stereo not shown) is higher in “hERG current change (%, negative = inhibition) at 10uM” value: -1.93% for the first, 12.9% for the second.

First: CCCn1c(N)c(NCCN2CCOCC2)c(=O)n(CC(=O)NCc2ccccc2)c1=O
Second: Cc1cc(C)c(Cn2c3ccccc3c3cnn(CC(=O)NCc4ccccn4)c(=O)c32)c(C)c1
The “hERG current change (%, negative = inhibition) at 10uM” value of the first is higher: 24.6% for the first, 13.4% for the second.

Compared with `COc1ccc(OC)c(N=C2C(=O)Nc3ccccc32)c1`, `Cc1c(NC(=O)C(C)Sc2ccccc2)c(=O)n(-c2ccccc2)n1C` (stereo not shown) is lower in “hERG current change (%, negative = inhibition) at 10uM” value: 0.392% for the first, -1.92% for the second.

First: O=S(=O)(Nc1ccc(F)cc1)N1CCCCCC1
Second: O=C(CN(c1ccc(F)cc1)S(=O)(=O)c1ccccc1)NC1CCCCCC1
The “hERG current change (%, negative = inhibition) at 10uM” value of the first is lower: -15.6% for the first, 23.7% for the second.

Going from `N#Cc1ccc(S(=O)(=O)NCC(=O)OCC(=O)N2CCCC2=O)cc1` to `COCCCNC(=O)CCNS(=O)(=O)c1ccc(C)cc1`, the “hERG current change (%, negative = inhibition) at 10uM” value falls from 2.33% to -1.45%.

Compared with `Cc1cc2nc[nH]c2cc1[N+](=O)[O-]`, `Cn1cc(Cl)c(C(=O)OCC(=O)Nc2nc(-c3ccc(Br)cc3)cs2)n1` is lower in “hERG current change (%, negative = inhibition) at 10uM” value: 12.2% for the first, 0.0195% for the second.

Going from `O=C(NCc1cccnc1)C(=O)NCC1OCCN1S(=O)(=O)c1cc(F)ccc1F` (stereo not shown) to `CC(=O)Nc1ccc(SCC(=O)NC(=O)c2ccccc2Br)cc1`, the “hERG current change (%, negative = inhibition) at 10uM” value rises from -9.68% to 0.691%.
